The list shows a part of the results.

The test system of the assay is PF3D7_0420300 AP2 domain 1 (GST-tagged). Briefly: gcPBM binding intensity (ln(normalized median fluorescence intensity)); higher = stronger DNA binding. Summed up:
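Binding of GST-tagged P. falciparum DNA-binding domains, expressed in E. coli and used at about 25 μg on average, was carried out for 1 h in 1× PBS containing 1% milk, 0.2 mg/ml BSA, 0.5% salmon testes DNA and 0.03% Triton X-100. The target was an Agilent 4 × 180k array of primer-extended double-stranded 36-bp intergenic genomic probes plus negative controls, read with Alexa488 anti-GST antibody at 488 nm. Binding intensity is the highest Masliner-normalised natural-log median intensity across replicate spots of either probe orientation.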
On to “TATTTCCTTTTTCTTGTTATTCATGAGAAAAAATGA [CACACA_negctrl_site482]”, for which the “gcPBM binding intensity (ln)” value amounted to 8.93.
In the case of GAAATTTTTAATGTGGTGCACAGGAAATTTTTTCTT, the “gcPBM binding intensity (ln)” value was 9.05.
On to “AAAATAATAATAGGCACACATATATATATATATATA [CACACA_site2058]”, for which the “gcPBM binding intensity (ln)” value came to 9.34.
In the case of “AGTATACTCGGACACACACACACATATATATATATA [CACACA_site5031]” it was 10.2.
In the case of TACATACATACAGGAGTGCATATATCACAATTATTA it was 9.34; in that of “AAAAAAAAAAAAACTACACACATACAAATATTTATA [CACACA_site5430]”, 9.74.
With “ATTTATTAAATAAAAAGTACAAAATAAGAAAGAAGA [XGTACX_site6935]” the figure was 9.53; with “TTATATATATCTAATTGTACAATATTATGTTCATTA [XGTACX_site7479]”, 9.24.
With “ATATATAATATAATATGTACATAAAATTTTAACATT [XGTACX_site5773]”, the “gcPBM binding intensity (ln)” value was determined as 9.36.
In the case of “AAAAAAACAGTGAATGCACACATTTAAGATCCATAT [CACACA_site3148]” it was 9.51; in that of “TATATTCCCTTAATCACACATAAATAAAAAAAAATA [CACACA_site6094]”, 9.09.
With “AGAACCATATATAAATGTACATGTTAATATGAATAA [XGTACX_site130]” the figure was 9.36; with “GGACAAAAAAAAAAAATAAAATAAAAATAAATAAAT [XGTACX_negctrl_site106]”, 9.28.
With “TAACACTTATAAAAAAGTACTGATGAAATAATACTA [XGTACX_site7305]” the figure was 9.11; with “AAATATATATGAAGATGTACATATATATATGTAAAT [XGTACX_site4039]”, 9.26.
For “AAAAATTCCAGACACACACACACATATAAATAAATA [CACACA_site1232]”, the “gcPBM binding intensity (ln)” value worked out at 9.93.
In the case of “TTTGTATAGTTGTAGGTGCATATCATTTTTAAATGT [GTGCAC_site9708]” it was 9.38; in that of “TGTTAATAAAGGTGTACACAAAATAAAAAAAATTAT [CACACA_site4288]”, 9.46.
With “TATAATTATATTTGGAGTACAAATTTTTTTTTTTTT [XGTACX_site7494]” the figure was 8.87.
With “AAAAAAAAAGGTAACGCATGCTTTTAGATTATATTA [TGCATGCA_site398]” the figure was 9.07; with “AAGTATGCTTGCTACTTATTAAGTGGCAATATAATT [XGTACX_negctrl_site74]”, 8.93; with “AATTAAAATATATATATACACACGTAATTATATATA [CACACA_site3819]”, 9.35.
As for “ATTGTGGCAATATATTGTACATGTAATATAAATATA [XGTACX_site5415]”, the “gcPBM binding intensity (ln)” value is 9.28.
In the case of “AAAAAAAAAAAAAAGAGTACTTTTTTCTCATTACTA [XGTACX_site8353]” it was 9.01; in that of “TCTTTTAGTTTTATCCACATAATAAAAAGCAAAAAA [GTGCAC_negctrl_site368]”, 8.99.
In the case of “AAAAAAAAAAAAATAGGTACGTAAATATTTCTTTAA [XGTACX_site6423]” it was 9.18; in that of “TATTCTTCAATTTAAAGTACAAAAATTACTATACTT [XGTACX_site6599]”, 9.06.
With “TATTCTAATTTTTAAACACACAAATATAAATAAGTA [CACACA_site3149]” the figure was 9.2.
Turning to TATTCATATTTAAAGGTGCAATATTTATTTTGTACA, the “gcPBM binding intensity (ln)” value was 8.99.
In the case of “CTATTTATTATATATACATGCATATATATATTAATA [TGCATGCA_site527]” it was 9.06.
In the case of “TAAAAATGTGTATGTACACACTTTATTTTTAATACA [CACACA_site7235]” it was 9.23; in that of “TATTAAACGAAACACACACACACACCCATATATAAA [CACACA_site759]”, 10.2; in that of “AAAAAGAATGTGAACACACACATTGAATCTAATTTA [CACACA_site6711]”, 9.44.
In the case of “GATAATTATGGACACACACACACACCCACAACTAAA [CACACA_site8824]” it was 10.3; in that of “TATATAAAAAATTCAATACACACCATATATAAATAT [CACACA_site3987]”, 9.66; in that of “ACATATAATATATATATATATATATATATATATAAT [GTGCAC_negctrl_site648]”, 9.09.
On to “TACATATAATATATTGCACACGTCAGAATAATATAG [CACACA_site1744]”, for which the “gcPBM binding intensity (ln)” value worked out at 9.39.
With “TTTCTTTCTTCACATATATATATATATATATTTATA [TGCATGCA_negctrl_site341]”, the “gcPBM binding intensity (ln)” value came out at 9.27.
With TAATAGAATATGATGGTGCAGCAGTCTTATTTTTCA the figure was 9.22.
In the case of “TTTTATAATATTTAAAGTACATTCTAAAAATATAAT [XGTACX_site8033]” it was 8.83.
With “TTAGCCATTAATTCTCTACACACCTTTATGTTATTT [CACACA_site9212]” the figure was 9.78.
On to “AAATAAAATAAAATAAAATAAAATTCTTTGATACCT [TGCATGCA_negctrl_site604]”, for which the “gcPBM binding intensity (ln)” value was 9.16.
“TATAATTATTTTTTTCTAAATATTATAAGGTATTCA [GTGCAC_negctrl_site205]”: the “gcPBM binding intensity (ln)” value turned out to be 8.89.
In the case of “CTTTTTAATAAATATACACACACAAAAAAAAAAAAA [CACACA_site9316]” it was 9.73.

For the origin of these results see the supplement of paper PMC11417369.
